± gives the standard deviation of the averaged measurements. The list shows a part of the results.

The subject of the assay is PfAP2-G AP2 domain (GST-tagged). In words: gcPBM binding intensity (ln(normalized median fluorescence intensity)); higher = stronger DNA binding. The method in brief: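 Binding of GST-tagged P. falciparum DNA-binding domains, expressed in E. coli and used at about 25 μg on average, was carried out for 1 h in 1× PBS containing 1% milk, 0.2 mg/ml BSA, 0.5% salmon testes DNA and 0.03% Triton X-100. The target was an Agilent 4 × 180k array of primer-extended double-stranded 36-bp intergenic genomic probes plus negative controls, read with Alexa488 anti-GST antibody at 488 nm. Binding intensity is the highest Masliner-normalised natural-log median intensity across replicate spots of either probe orientation.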
In the case of “AAATGAAATACATCCTGTACATAGTAATGCTAACAA [XGTACX_site6600]”, the “gcPBM binding intensity (ln)” value stood at 10.7 ± 0.49. Regarding “TTTTACAATGAAAGGTGTACAAGTAACAGTAGAACA [XGTACX_site1528]”, the “gcPBM binding intensity (ln)” value is 11.5 ± 0.76. Regarding “TATAAATAAAAACACACACACACATATATATATATA [CACACA_site2268]”, the “gcPBM binding intensity (ln)” value is 10.1 ± 0.31. In the case of “CTCTATAAATGCTGCACACACATTTAATTATTTAAG [CACACA_site2582]”, the “gcPBM binding intensity (ln)” value turned out to be 10.3 ± 0.35. Regarding “TATAAATATAAATATACACACATATTTATATTTATA [CACACA_site7053]”, the “gcPBM binding intensity (ln)” value worked out at 9.79 ± 0.22.

Turning to “TTTATATTTTATAAATTATTCATAAATATATTTGTA [TGCATGCA_negctrl_site175]”, the “gcPBM binding intensity (ln)” value stood at 9.61 ± 0.057. In the case of “TTTTGAAACATATGATGTACACGAACATTTAAAAAA [XGTACX_site474]”, the “gcPBM binding intensity (ln)” value amounted to 11.4 ± 0.8. For “AATAAATAGATAAGCACACAAGCATATAGACATATA [CACACA_site222]”, the “gcPBM binding intensity (ln)” value amounted to 9.87 ± 0.085. Next, “AAATTCCACCAACACACACACATATAAATAAATAAA [CACACA_site1233]”: 10 ± 0.29; “AACAAATACAGACACACACACACACTAATAAAAAAA [CACACA_site8067]”: 10.3 ± 0.38; “TATTTTTATATTTTTGCACACATTCTTTACTCTTCA [CACACA_site2211]”: 10.1. With “AAAAATTTTATATTCACACACATATATATATATATA [CACACA_site624]”, the “gcPBM binding intensity (ln)” value is 10.1 ± 0.35. Next, “GATATATATTAATATACACACACACCGATATATATA [CACACA_site8462]”: 9.895 ± 0.007. With “TTGTATTATTATGTTGCACACATTTTATATAAAATA [CACACA_site3641]”, the “gcPBM binding intensity (ln)” value was 10.6 ± 0.51. Then “TTTAGATAATTCATTACACACATGTATTTATATATA [CACACA_site5847]”, with 9.895 ± 0.049; and “TATATATATATATATATATATACAAATATATATTAT [CACACA_negctrl_site1729]”, with 10.1 ± 0.74. Next, “TGAGCATAAAAAGGGTGTACTTAAATATATTATATA [XGTACX_site7556]”: 11.4 ± 0.88.

For the sequence “GAATATAATCTGTATTGTACGAAAGTTGAACACTTG [XGTACX_site8895]”, the “gcPBM binding intensity (ln)” value came to 10.8 ± 0.4. As to “ATACCAACATATTATACACACCTTTATATTTTTTTT [CACACA_site5217]”, the “gcPBM binding intensity (ln)” value turned out to be 10.1 ± 0.15. Then “GGTTGTATAAGTTTTTGTACATATATATATATATAT [XGTACX_site7487]”, with 10.9 ± 0.47; and “TTCAAGGTTTTAGATTGTACAATTATTATATATATA [XGTACX_site8982]”, with 10.9 ± 0.43; and “ATAAAAGATATTTTTACACACTTTTGATGAGATCGT [CACACA_site3053]”, with 10.08 ± 0.057. Next, “AAGTATAAAAAAAGGCGTACAAAAAAAAAAAAAAAA [XGTACX_site7309]”: 11.7 ± 0.9; “TTTTTCATTAATACAAGTACAAAATGATGTTGACAT [XGTACX_site1475]”: 10.9 ± 0.57. Next, “TAATAAGAAATAACAGGTACACATATATAAATATTA [XGTACX_site2976]”: 11.1 ± 0.66. On to “ATATGTAGATGATATTATTACTTTTCAAAAATTCAA [CACACA_negctrl_site933]”, for which the “gcPBM binding intensity (ln)” value is 9.835 ± 0.078. Then “ACTATTTAGTCTGGTGGTACTTTATATATAATTTCT [XGTACX_site5618]”, with 11.1 ± 0.5; and “ATATGTGTATGTGCGTGTACATATCTATACAGTTGT [XGTACX_site6540]”, with 11.3 ± 0.81. As to “TTTTATCTTTTTTTATTTTAATGTATTATTTTTATG [XGTACX_negctrl_site24]”, the “gcPBM binding intensity (ln)” value worked out at 9.79 ± 0.042.

In the case of “ATTATCATAATGTTCACACATATGGTATATATAGAT [CACACA_site6113]”, the “gcPBM binding intensity (ln)” value worked out at 10.18 ± 0.014. As to “TTTTTGTAAAAACACACACACAAACAGAAAAAATAA [CACACA_site2076]”, the “gcPBM binding intensity (ln)” value was found to be 10.4 ± 0.28. Next, “TGTGCCCAAAATTATGCACACACCTAAAATTAATTT [CACACA_site2914]”: 10.3 ± 0.22; “ATGGTAGTTCTCCATGCATGCCTTTTTATTATCATA [TGCATGCA_site681]”: 9.89 ± 0.2; “ATACTTTAAAATAATACACACATGGAAAATAAAATT [CACACA_site697]”: 10.3 ± 0.17. “AAGACAAATATGTATTGTACGAACGCTTTTTAATTA [XGTACX_site1961]”: the “gcPBM binding intensity (ln)” value was 10.8 ± 0.44. Then “AAAAAAAAATAAAAAAGTACAGGTAAATATATATAT [XGTACX_site5812]”, with 11.5 ± 1.2. For “AAAAAAAAAAAATATATATATATATATATAATATTT [GTGCAC_negctrl_site678]”, the “gcPBM binding intensity (ln)” value was found to be 9.43 ± 0.099.

In the case of “GAATAAATAAAAATATGTACATAAATATATATATAT [XGTACX_site8858]”, the “gcPBM binding intensity (ln)” value amounted to 11.4 ± 0.71. Next, “ATAAAAGTTTAATATTGTACGAACATGCGTTTCTAA [XGTACX_site1487]”: 10.8 ± 0.49. “TTTATAAAATATCTTTCACACATTACTATGTATTAT [CACACA_site5148]”: the “gcPBM binding intensity (ln)” value was found to be 9.825 ± 0.092. Then “TTCTTAAAAAATCAAACACACATATATATATACATA [CACACA_site2296]”, with 9.91 ± 0.12; and “ATAAATAGAATAAAATGTACATGTAATACATATATA [XGTACX_site5475]”, with 10.9 ± 0.43. Then “TTTTATTATTAAACATGTACCCATATTATTGTTATG [XGTACX_site5563]”, with 11.2 ± 0.56. “AAAAAAAAAAAAAAAACACACAATTGAATTATTAAG [CACACA_site2864]”: the “gcPBM binding intensity (ln)” value stood at 10.3 ± 0.29.

The record behind these values is the supplement of paper PMC11417369.
